# About 21,000 targets were measured; listed, in parts, are those with the largest changes and a random draw of the rest.
# Compound: CC1Cc2ccccc2N1C(=O)C1CCCN(C1)C(=O)CCl (mixture of isomers) [TRIM25 ligand 11 (diastereomer mixture)]
# Experiment: probe-labelled cysteine peptide fold change vs DMSO (competition) (log2 fold change); higher = less target engagement (more negative = stronger competition)
# Settings: 10 µM; THP-1; incubation time: 4 h
# 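Also: competitive chemoproteomic profiling in live THP-1 cells with an iodoacetamide desthiobiotin (IA-DTB) probe, comparing probe-labelled peptide intensities in compound-treated cells against DMSO-treated controls.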
# Chain of UniProt Q0D2K2 (Q0D2K2 whole entry): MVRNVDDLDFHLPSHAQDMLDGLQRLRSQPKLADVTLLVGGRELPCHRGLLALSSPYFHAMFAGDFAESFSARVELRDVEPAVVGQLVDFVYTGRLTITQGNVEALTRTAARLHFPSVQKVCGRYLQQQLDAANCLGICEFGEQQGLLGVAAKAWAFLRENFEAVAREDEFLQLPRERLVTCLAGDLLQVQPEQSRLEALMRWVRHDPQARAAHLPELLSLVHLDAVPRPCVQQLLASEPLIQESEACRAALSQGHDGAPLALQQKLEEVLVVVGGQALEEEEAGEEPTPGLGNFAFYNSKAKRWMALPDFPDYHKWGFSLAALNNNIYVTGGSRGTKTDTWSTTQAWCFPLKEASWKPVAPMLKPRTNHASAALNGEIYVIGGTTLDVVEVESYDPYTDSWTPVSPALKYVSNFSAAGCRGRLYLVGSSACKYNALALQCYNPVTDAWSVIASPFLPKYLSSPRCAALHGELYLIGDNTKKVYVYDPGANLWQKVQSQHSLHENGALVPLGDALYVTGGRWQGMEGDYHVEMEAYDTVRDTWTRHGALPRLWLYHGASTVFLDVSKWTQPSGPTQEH
# Chain of UniProt Q8IU81 (Q8IU81 whole entry, looked up): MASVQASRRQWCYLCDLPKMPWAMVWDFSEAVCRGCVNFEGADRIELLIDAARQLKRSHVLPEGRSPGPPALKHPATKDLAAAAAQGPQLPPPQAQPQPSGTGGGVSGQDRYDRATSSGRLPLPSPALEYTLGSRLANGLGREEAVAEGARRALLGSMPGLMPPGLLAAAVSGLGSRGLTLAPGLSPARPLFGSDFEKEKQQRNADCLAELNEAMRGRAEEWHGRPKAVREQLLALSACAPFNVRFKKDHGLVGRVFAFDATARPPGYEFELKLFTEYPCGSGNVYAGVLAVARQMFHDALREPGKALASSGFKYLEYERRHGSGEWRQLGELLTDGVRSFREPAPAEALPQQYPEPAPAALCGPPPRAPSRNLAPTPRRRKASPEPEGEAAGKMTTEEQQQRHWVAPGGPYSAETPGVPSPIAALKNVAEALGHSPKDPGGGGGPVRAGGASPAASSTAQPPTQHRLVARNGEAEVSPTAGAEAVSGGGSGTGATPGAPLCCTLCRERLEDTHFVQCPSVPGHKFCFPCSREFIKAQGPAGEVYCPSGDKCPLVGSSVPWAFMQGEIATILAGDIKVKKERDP
# Chain of UniProt P46940 (P46940 whole entry, looked up): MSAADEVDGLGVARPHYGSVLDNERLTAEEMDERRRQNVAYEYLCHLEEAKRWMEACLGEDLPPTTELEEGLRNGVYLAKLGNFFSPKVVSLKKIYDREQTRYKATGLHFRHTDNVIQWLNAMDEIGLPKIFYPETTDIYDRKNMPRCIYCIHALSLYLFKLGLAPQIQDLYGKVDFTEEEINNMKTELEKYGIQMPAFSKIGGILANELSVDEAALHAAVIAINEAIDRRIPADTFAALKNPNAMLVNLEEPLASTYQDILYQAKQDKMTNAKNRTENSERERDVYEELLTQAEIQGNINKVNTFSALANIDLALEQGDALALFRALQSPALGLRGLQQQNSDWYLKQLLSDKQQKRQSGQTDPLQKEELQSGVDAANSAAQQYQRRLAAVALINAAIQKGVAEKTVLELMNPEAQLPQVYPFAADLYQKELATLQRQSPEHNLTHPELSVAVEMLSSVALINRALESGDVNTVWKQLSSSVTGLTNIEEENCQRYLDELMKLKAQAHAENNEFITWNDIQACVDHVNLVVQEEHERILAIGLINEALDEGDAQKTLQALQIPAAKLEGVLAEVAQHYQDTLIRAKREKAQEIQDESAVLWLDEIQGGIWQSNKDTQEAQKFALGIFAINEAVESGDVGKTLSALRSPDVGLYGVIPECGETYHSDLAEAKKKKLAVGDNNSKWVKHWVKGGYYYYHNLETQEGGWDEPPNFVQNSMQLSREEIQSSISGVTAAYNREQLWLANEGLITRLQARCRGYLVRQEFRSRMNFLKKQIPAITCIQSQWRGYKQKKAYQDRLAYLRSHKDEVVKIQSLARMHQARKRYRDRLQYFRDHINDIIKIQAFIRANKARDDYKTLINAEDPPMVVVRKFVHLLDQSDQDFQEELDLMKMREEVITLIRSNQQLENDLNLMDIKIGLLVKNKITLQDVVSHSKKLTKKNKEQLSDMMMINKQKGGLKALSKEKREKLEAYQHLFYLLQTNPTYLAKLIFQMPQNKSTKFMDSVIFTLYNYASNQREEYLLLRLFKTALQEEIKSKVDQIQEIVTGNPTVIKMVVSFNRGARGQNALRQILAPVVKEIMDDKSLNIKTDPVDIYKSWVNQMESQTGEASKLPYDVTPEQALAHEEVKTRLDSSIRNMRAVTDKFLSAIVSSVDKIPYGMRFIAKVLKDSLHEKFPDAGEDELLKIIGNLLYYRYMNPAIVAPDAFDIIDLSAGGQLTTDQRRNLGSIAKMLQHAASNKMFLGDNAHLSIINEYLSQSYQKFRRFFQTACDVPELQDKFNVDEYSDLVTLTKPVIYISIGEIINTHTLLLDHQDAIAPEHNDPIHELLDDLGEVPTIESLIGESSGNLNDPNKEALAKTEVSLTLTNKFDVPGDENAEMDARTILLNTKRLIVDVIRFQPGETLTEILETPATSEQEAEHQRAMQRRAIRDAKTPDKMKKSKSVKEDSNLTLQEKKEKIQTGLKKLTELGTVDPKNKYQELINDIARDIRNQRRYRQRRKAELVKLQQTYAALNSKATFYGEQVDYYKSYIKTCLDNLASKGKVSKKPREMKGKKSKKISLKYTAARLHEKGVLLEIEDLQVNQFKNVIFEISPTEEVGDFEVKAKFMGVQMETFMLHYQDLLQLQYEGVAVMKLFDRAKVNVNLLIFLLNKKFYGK
# Chain of UniProt Q8IWT6 (Q8IWT6 whole entry, looked up): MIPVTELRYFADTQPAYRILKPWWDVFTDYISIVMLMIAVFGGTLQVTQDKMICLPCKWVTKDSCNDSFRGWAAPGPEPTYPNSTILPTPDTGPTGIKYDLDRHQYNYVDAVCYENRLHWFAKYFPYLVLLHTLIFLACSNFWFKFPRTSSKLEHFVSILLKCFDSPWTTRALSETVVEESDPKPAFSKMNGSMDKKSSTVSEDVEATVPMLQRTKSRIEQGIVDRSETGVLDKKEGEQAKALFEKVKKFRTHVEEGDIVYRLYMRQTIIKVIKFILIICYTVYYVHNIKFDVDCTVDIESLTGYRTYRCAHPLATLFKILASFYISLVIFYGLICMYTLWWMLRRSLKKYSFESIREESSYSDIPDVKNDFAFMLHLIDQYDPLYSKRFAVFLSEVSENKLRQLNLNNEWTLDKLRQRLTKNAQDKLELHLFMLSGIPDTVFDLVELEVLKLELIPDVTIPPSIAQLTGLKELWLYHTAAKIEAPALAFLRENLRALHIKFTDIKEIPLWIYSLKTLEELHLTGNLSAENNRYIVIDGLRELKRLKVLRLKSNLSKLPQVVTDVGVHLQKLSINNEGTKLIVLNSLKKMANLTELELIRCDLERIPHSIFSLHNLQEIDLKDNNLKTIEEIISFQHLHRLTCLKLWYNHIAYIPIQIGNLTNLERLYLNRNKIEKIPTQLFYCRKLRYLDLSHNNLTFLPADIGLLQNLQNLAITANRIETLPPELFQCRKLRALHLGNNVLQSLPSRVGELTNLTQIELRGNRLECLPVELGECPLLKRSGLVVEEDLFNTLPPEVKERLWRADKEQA
# Chain of UniProt O15357 (O15357 whole entry, looked up): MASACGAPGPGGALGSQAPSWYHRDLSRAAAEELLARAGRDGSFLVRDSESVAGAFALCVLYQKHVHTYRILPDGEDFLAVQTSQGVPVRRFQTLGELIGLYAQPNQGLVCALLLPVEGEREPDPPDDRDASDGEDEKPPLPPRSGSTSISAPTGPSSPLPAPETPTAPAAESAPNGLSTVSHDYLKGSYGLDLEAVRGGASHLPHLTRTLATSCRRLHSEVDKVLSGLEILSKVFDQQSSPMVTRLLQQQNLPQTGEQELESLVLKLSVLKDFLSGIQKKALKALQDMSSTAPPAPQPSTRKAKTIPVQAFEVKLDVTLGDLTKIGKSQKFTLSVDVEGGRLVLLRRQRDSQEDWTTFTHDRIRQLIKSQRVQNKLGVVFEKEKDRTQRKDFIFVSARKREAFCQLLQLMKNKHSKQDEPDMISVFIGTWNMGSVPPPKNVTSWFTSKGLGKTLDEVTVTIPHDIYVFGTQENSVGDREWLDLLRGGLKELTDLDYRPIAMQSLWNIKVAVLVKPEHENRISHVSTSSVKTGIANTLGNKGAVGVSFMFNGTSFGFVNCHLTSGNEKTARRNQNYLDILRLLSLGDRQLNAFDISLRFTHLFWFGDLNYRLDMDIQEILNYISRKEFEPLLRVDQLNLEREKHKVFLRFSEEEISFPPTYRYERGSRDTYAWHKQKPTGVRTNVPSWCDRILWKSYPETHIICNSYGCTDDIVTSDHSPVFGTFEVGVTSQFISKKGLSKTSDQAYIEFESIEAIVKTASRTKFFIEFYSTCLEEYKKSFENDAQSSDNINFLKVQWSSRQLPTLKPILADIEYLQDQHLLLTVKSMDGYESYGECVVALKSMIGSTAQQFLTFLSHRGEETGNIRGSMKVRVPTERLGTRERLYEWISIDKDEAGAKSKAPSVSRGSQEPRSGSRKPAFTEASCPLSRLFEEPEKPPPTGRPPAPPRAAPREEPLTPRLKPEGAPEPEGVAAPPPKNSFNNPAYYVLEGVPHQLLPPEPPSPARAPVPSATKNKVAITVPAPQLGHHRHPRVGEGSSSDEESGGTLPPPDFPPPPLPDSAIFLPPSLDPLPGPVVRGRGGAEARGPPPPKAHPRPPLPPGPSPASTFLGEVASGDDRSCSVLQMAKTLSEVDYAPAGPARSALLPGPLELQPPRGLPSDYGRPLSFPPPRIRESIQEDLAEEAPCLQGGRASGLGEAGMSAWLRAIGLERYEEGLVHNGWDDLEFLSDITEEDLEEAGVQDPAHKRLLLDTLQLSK
# Chain of UniProt Q3MHD2 (Q3MHD2 whole entry, looked up): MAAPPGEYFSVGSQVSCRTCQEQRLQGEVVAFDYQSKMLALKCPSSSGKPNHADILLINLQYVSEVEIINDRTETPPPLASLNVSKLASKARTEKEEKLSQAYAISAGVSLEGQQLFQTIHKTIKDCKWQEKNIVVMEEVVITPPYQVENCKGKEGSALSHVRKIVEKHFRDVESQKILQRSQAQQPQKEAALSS
row,Target,probe-labelled cysteine peptide fold change
1,IFIT3_O14879_73_HLDGNNEAALECLR (UniProt O14879),0.0243
2,LMNA_P02545_570_SVTVVEDDEDEDGDDLLHHHHGSHCSSSGDPAEYNLR (UniProt P02545),0.719
3,KIZ_Q2M2Z5_293_CDSSSGSEGEILTR (UniProt Q2M2Z5),0.602
4,LCP1_P13796_336_EKDDIQRAECMLQQAER (UniProt P13796),-0.561
5,IRF8_Q02556_410_MFPDICASHQR (UniProt Q02556),-0.0684
6,INTS7_Q9NVH2_618_GIASLTAASTPLNPLSFQCEFVK (UniProt Q9NVH2),0.23
7,KIAA0753_Q2KHM9_745_QLDDFLEDCASELWAVTHAK (UniProt Q2KHM9),-0.271
8,IQGAP1_P46940_57_RWMEACLGEDLPPTTELEEGLR (UniProt P46940),0.11
9,ITGB2_P05107_400_GDCDGVQINVPITFQVK (UniProt P05107),-0.0868
10,IRF2BP1_Q8IU81_15_RQWCYLCDLPK (UniProt Q8IU81),0.192
11,ILK_Q13418_42_LWLDNTENDLNQGDDHGFSPLHWACR (UniProt Q13418),-0.0686
12,LSM2_Q9Y333_26_NDLSICGTLHSVDQYLNIK (UniProt Q9Y333),0.117
13,KMT2C_Q8NEZ4_638_HICGEDQIEDK (UniProt Q8NEZ4),0.0922
14,IPO4_Q8TEX9_962_DNICGALAR (UniProt Q8TEX9),-0.0165
15,LRRC8A_Q8IWT6_776_LECLPVELGECPLLK (UniProt Q8IWT6),-0.489
16,KYAT3_Q6YP21_313_HLQTVQQNTIYTCATPLQEALAQAFWIDIKR (UniProt Q6YP21),0.0989
17,INTS10_Q9NVR2_7_SAQGDCEFLVQR (UniProt Q9NVR2),-0.504
18,KMT5C_Q86Y97_231_NEHCECHTCER (UniProt Q86Y97),0.222
19,IFT122_Q9HBG6_14_AEHCINDIAFKPDGTQLILAAGSR (UniProt Q9HBG6),0.0755

row,Target,probe-labelled cysteine peptide fold change
1,IP6K2_Q9UHH9_104_GDHGIVDIVDNSDCEPK (UniProt Q9UHH9),-0.664
2,LENG8_Q96PV6_584_SLCMVK (UniProt Q96PV6),-0.0796
3,INTS7_Q9NVH2_42_LGEQCEAVVR (UniProt Q9NVH2),0.0461
4,HUWE1_Q7Z6Z7_1832_HIIEDPCTLR (UniProt Q7Z6Z7),-0.0176
5,KDM4B_O94953_13_GSEDHGAQNPSCK (UniProt O94953),-0.105
6,LENG9_Q96B70_127_EEPFSAFCWDQPLAALGPGVLAVPQHR (UniProt Q96B70),-0.211
7,KLHL30_Q0D2K2_231_AAHLPELLSLVHLDAVPRPCVQQLLASEPLIQESEACR (UniProt Q0D2K2),-0.0164
8,KMT2D_O14686_414_EPGPLQCEAK (UniProt O14686),-0.0462
9,LIMA1_Q9UHB6_414_LLANQQVFHISCFR (UniProt Q9UHB6),0.25
10,KEAP1_Q14145_368_SGLAGCVVGGLLYAVGGR (UniProt Q14145),-0.0944
11,KLC1_Q07866_236_YEVAVPLCK (UniProt Q07866),0.0852
12,KIF14_Q15058_850_YKPNSSHDIQLSGVLIADDHCTIK (UniProt Q15058),0.209
13,KPNB1_Q14974_228_HFIMQVVCEATQCPDTR (UniProt Q14974),0.0558
14,INPPL1_O15357_689_TNVPSWCDR (UniProt O15357),0.019
15,KPNB1_Q14974_158_ESTLEAIGYICQDIDPEQLQDK (UniProt Q14974),-0.0564
16,LRRC8D_Q7L1W4_645_MMNVAELELQNCELER (UniProt Q7L1W4),0.643
17,LSM12_Q3MHD2_43_CPSSSGKPNHADILLINLQYVSEVEIINDRTETPPPLASLNVSK (UniProt Q3MHD2),-0.224
18,ITGB7_P26010_91_GCPLEELEEPR (UniProt P26010),-0.0179
19,KDM2B_Q8NHM5_770_SECEEAPR (UniProt Q8NHM5),0.0332

# Same assay, conditions: 50 µM; THP-1; incubation time: 4 h
row,Target,probe-labelled cysteine peptide fold change
1,IFIT3_O14879_73_HLDGNNEAALECLR (UniProt O14879),0.181
2,LMNA_P02545_570_SVTVVEDDEDEDGDDLLHHHHGSHCSSSGDPAEYNLR (UniProt P02545),0.0524
3,KIZ_Q2M2Z5_293_CDSSSGSEGEILTR (UniProt Q2M2Z5),-0.285
4,LCP1_P13796_336_EKDDIQRAECMLQQAER (UniProt P13796),-0.237
5,IRF8_Q02556_410_MFPDICASHQR (UniProt Q02556),-0.198
6,INTS7_Q9NVH2_618_GIASLTAASTPLNPLSFQCEFVK (UniProt Q9NVH2),0.0121
7,KIAA0753_Q2KHM9_745_QLDDFLEDCASELWAVTHAK (UniProt Q2KHM9),-0.0783
8,IQGAP1_P46940_57_RWMEACLGEDLPPTTELEEGLR (UniProt P46940),-0.0666
9,ITGB2_P05107_400_GDCDGVQINVPITFQVK (UniProt P05107),-0.0224
10,IRF2BP1_Q8IU81_15_RQWCYLCDLPK (UniProt Q8IU81),0.12
11,ILK_Q13418_42_LWLDNTENDLNQGDDHGFSPLHWACR (UniProt Q13418),0.126
12,LSM2_Q9Y333_26_NDLSICGTLHSVDQYLNIK (UniProt Q9Y333),0.189
13,KMT2C_Q8NEZ4_638_HICGEDQIEDK (UniProt Q8NEZ4),0.0478
14,IPO4_Q8TEX9_962_DNICGALAR (UniProt Q8TEX9),0.0509
15,LRRC8A_Q8IWT6_776_LECLPVELGECPLLK (UniProt Q8IWT6),0.0904
16,KYAT3_Q6YP21_313_HLQTVQQNTIYTCATPLQEALAQAFWIDIKR (UniProt Q6YP21),-0.0185
17,INTS10_Q9NVR2_7_SAQGDCEFLVQR (UniProt Q9NVR2),-0.772
18,KMT5C_Q86Y97_231_NEHCECHTCER (UniProt Q86Y97),0.00261
19,IFT122_Q9HBG6_14_AEHCINDIAFKPDGTQLILAAGSR (UniProt Q9HBG6),0.0225

row,Target,probe-labelled cysteine peptide fold change
1,IP6K2_Q9UHH9_104_GDHGIVDIVDNSDCEPK (UniProt Q9UHH9),-0.28
2,LENG8_Q96PV6_584_SLCMVK (UniProt Q96PV6),-0.141
3,INTS7_Q9NVH2_42_LGEQCEAVVR (UniProt Q9NVH2),0.0411
4,HUWE1_Q7Z6Z7_1832_HIIEDPCTLR (UniProt Q7Z6Z7),-0.0105
5,KDM4B_O94953_13_GSEDHGAQNPSCK (UniProt O94953),-0.0685
6,LENG9_Q96B70_127_EEPFSAFCWDQPLAALGPGVLAVPQHR (UniProt Q96B70),0.0104
7,KLHL30_Q0D2K2_231_AAHLPELLSLVHLDAVPRPCVQQLLASEPLIQESEACR (UniProt Q0D2K2),-0.645
8,KMT2D_O14686_414_EPGPLQCEAK (UniProt O14686),-0.238
9,LIMA1_Q9UHB6_414_LLANQQVFHISCFR (UniProt Q9UHB6),-0.206
10,KEAP1_Q14145_368_SGLAGCVVGGLLYAVGGR (UniProt Q14145),0.0274
11,KLC1_Q07866_236_YEVAVPLCK (UniProt Q07866),0.0881
12,KIF14_Q15058_850_YKPNSSHDIQLSGVLIADDHCTIK (UniProt Q15058),0.0189
13,KPNB1_Q14974_228_HFIMQVVCEATQCPDTR (UniProt Q14974),0.0409
14,INPPL1_O15357_689_TNVPSWCDR (UniProt O15357),0.159
15,KPNB1_Q14974_158_ESTLEAIGYICQDIDPEQLQDK (UniProt Q14974),0.109
16,LRRC8D_Q7L1W4_645_MMNVAELELQNCELER (UniProt Q7L1W4),0.269
17,LSM12_Q3MHD2_43_CPSSSGKPNHADILLINLQYVSEVEIINDRTETPPPLASLNVSK (UniProt Q3MHD2),-0.151
18,ITGB7_P26010_91_GCPLEELEEPR (UniProt P26010),-0.0774
19,KDM2B_Q8NHM5_770_SECEEAPR (UniProt Q8NHM5),0.255

# Source: the supplement of paper PMC12067093, “Discovery and optimisation of a covalent ligand for TRIM25 and its application to targeted protein ubiquitination” (Chemical Science, 2025)
